In patent US20240181022A1, “AMURINS LYSINS, AND LYSIN-ANTIMICROBIAL PEPTIDE (AMP) CONSTRUCTS ACTIVE AGAINST GRAM-NEGATIVE BACTERIA” (priority 2021, published 2024):
Entries with a single value are a further part of the results.

B1: GN370: lysin-AMP construct, SEQ ID NO: 149: MIDR, FIRL and NPTH moieties N-terminal to GN202 lysin (protein)
chain: MIDRFIRLNPTHGPRRPRRPGRRAPVRTSQRGIDLIKSFEGLRLSAYQDSVGVWTIGYGTTRGVTRYMTITVEQAERMLSNDIQRFEPELDRLAKVPLNQNQWDALMSFVYNLGAANLASSTLLDLLNKGDYQGAADQFPHWVNAGGKRLDGLVKRRAAERALFLEPLS
modifications: GN370 lysin

Test system: P. aeruginosa AR-769
Assay: GN370 in the rabbit pneumonia model
Type: in vivo, New Zealand White rabbits
Settings: intravenously

Molecule	Tissue bacterial burden (mean ± SD) (amikacin 4 mg/kg, 3 doses every 8 hours, kidneys)	Tissue bacterial burden (mean ± SD) (amikacin 4 mg/kg, 3 doses every 8 hours, lung #1)	Tissue bacterial burden (mean ± SD) (amikacin 4 mg/kg, 3 doses every 8 hours, lung #2)	Tissue bacterial burden (mean ± SD) (amikacin 4 mg/kg, 3 doses every 8 hours, spleen)	Tissue bacterial burden (mean ± SD) (GN370 3 mg/kg single dose, kidneys)	Tissue bacterial burden (mean ± SD) (GN370 3 mg/kg single dose, lung #1)	Tissue bacterial burden (mean ± SD) (GN370 3 mg/kg single dose, lung #2)	Tissue bacterial burden (mean ± SD) (GN370 3 mg/kg single dose, spleen)	Tissue bacterial burden (mean ± SD) (GN370 10 mg/kg single dose, kidneys)	Tissue bacterial burden (mean ± SD) (GN370 10 mg/kg single dose, lung #1)	Tissue bacterial burden (mean ± SD) (GN370 10 mg/kg single dose, lung #2)	Tissue bacterial burden (mean ± SD) (GN370 10 mg/kg single dose, spleen)
NCC[C@H](O)C(=O)N[C@@H]1C[C@H](N)[C@@H](O[C@H]2O[C@H](CN)[C@@H](O)[C@H](O)[C@H]2O)[C@H](O)[C@H]1O[C@H]1O[C@H](CO)[C@@H](O)[C@H](N)[C@H]1O [amikacin, reference compound]	4.82 ± 0.82 Log10 CFU/g	6.43 ± 1.47 Log10 CFU/g	6.63 ± 0.91 Log10 CFU/g	4.63 ± 1.16 Log10 CFU/g	–	–	–	–	–	–	–	–
B1	–	–	–	–	4.05 ± 0.91 Log10 CFU/g	6.14 ± 0.99 Log10 CFU/g	5.60 ± 1.59 Log10 CFU/g	3.84 ± 0.97 Log10 CFU/g	4.02 ± 0.90 Log10 CFU/g	5.74 ± 1.62 Log10 CFU/g	5.57 ± 1.40 Log10 CFU/g	3.94 ± 0.86 Log10 CFU/g
